Reference: US20240254195A1 (35PHARMA, published 2024)

Tests used:
Experiment in all cases: cell-based or functional assay
[1] = target: T1, BMP-10 (UniProt O95393 317-424)
T1 sequence (looked up): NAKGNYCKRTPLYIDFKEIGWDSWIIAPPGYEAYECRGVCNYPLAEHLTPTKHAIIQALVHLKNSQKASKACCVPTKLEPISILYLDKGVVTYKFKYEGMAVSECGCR

[2] = target: T2, BMP-9 (UniProt Q9UK05 320-429)
T2 sequence (looked up): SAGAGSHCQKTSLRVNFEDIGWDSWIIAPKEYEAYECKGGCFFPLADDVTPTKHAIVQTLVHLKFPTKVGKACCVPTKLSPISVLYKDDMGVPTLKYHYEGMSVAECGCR

[3] = target: T3, recombinant human activin A (human, UniProt P08476 311-426)
T3 sequence (looked up): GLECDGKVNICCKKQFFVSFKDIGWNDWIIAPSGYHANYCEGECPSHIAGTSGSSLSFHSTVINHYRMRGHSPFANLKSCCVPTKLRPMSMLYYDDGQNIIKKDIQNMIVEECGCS

[4] = target: T4, activin B (UniProt P09529 293-407)
T4 sequence (looked up): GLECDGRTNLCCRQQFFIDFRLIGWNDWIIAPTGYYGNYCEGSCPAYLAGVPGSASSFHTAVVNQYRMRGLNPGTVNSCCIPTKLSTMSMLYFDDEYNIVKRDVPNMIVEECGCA

[5] = target: T5, GDF-11 (UniProt O95390 299-407)
T5 sequence (looked up): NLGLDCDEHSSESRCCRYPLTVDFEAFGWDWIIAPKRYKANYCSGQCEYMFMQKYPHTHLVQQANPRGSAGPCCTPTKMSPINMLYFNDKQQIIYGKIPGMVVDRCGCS

[6] = target: T6, GDF-8 (UniProt O14793 267-375)
T6 sequence (looked up): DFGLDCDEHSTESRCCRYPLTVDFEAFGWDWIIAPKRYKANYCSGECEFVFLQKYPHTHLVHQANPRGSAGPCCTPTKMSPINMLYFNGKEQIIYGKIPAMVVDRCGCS

[7] = target: T2, BMP-9; remark: listed apart in the source

B1: wild type human ActRIIB-ECD-Fc (P75) (Fc fusion)
chain: ETRECIYYNANWELERTNQSGLERCEGEQDKRLHCYASWRNSSGTIELVKKGCWLDDFNCYDRQECVATEENPQVYFCCCEGNFCNERFTHLPEAGGPEVTYEPPPTG[human IgG1 Fc and a few adjoining residues cut from this listing]
Q: With B1 as the binder, how does the “BMP-10 IC50” value [1] read?
A: 2 nM

Q: What about the “BMP-9 IC50” value [2] of the same binder?
A: 3 nM

Q: And the “Activin A IC50” value [3]?
A: 2.3 nM

Q: And the “Activin B IC50” value [4]?
A: 1.4 nM

Q: And the “GDF-11 IC50” value [5]?
A: 0.75 nM

Q: And the “GDF-8 IC50” value [6]?
A: 0.67 nM

B2: P751 (Fc fusion)
chain: ETRECIYYNANWELERTNQSGLERCEGEQDKRYHCYASWRNSSGTIELVKKGCWLDDFNCYDRQECVATEENPQVYFCCCEGNFCNERFTHLPEAGGPEVTYEPPPTGGGGSGGGGSGG[human IgG1 Fc and a few adjoining residues cut from this listing]
Q: What does the source list for B2?
A: BMP-10 IC50 [1]: 2.4 nM; BMP-9 IC50 [2]: 18 nM; Activin A IC50 [3]: 0.82 nM; Activin B IC50 [4]: 0.8 nM; GDF-11 IC50 [5]: 0.25 nM; GDF-8 IC50 [6]: 0.3 nM

B3: P750 (Fc fusion)
chain: ETRECIYYNANWELERTNQSGLERCEGEQDKRRHCYASWRNSSGTIELVKKGCWLDDFNCYDRQECVATEENPQVYFCCCEGNFCNERFTHLPEAGGPEVTYEPPPTGGGGSGGGGSGG[human IgG1 Fc and a few adjoining residues cut from this listing]
Q: How did the “BMP-10 IC50” value [1] turn out when B3 was run?
A: 4.7 nM

Q: What about the “BMP-9 IC50” value [2] of the same binder?
A: 21 nM

Q: And the “Activin A IC50” value [3]?
A: 0.76 nM

Q: And the “Activin B IC50” value [4]?
A: 1 nM

Q: What about the “GDF-11 IC50” value [5] of the same binder?
A: 0.51 nM

Q: And the “GDF-8 IC50” value [6]?
A: 0.58 nM

B4: P1182 (Fc fusion)
chain: ETRECIYYNANWELERTNQSGLERCEDEQDKRYHCYASWRNSSGTIELVKKGCWLDDFNCYDRQECVATEENPQVYFCCCEGNFCNERFTHLPEAGGPEVTYEPPPTGGGGSGGGGSGG[human IgG1 Fc and a few adjoining residues cut from this listing]
Q: What does the source list for B4?
A: BMP-10 IC50 [1]: 2.4 nM; BMP-9 IC50 [2]: 265 nM; Activin A IC50 [3]: 0.85 nM; Activin B IC50 [4]: 7.7 nM; GDF-11 IC50 [5]: 0.46 nM; GDF-8 IC50 [6]: 0.37 nM

B5: P1185 (Fc fusion)
chain: ETRECIYYNANWELERTNQSGLERCEEEQDKRYHCYASWRNSSGTIELVKKGCWLDDFNCYDRQECVATEENPQVYFCCCEGNFCNERFTHLPEAGGPEVTYEPPPTGGGGSGGGGSGG[human IgG1 Fc and a few adjoining residues cut from this listing]
Q: For B5, which “BMP-10 IC50” value [1] is on record?
A: 2.3 nM

Q: What about the “BMP-9 IC50” value [2] of the same binder?
A: 791 nM

Q: What about the “Activin A IC50” value [3] of the same binder?
A: 1 nM

Q: What about the “Activin B IC50” value [4] of the same binder?
A: 5.2 nM

Q: What about the “GDF-11 IC50” value [5] of the same binder?
A: 0.44 nM

Q: What about the “GDF-8 IC50” value [6] of the same binder?
A: 0.33 nM

B6: P1229 (Fc fusion)
chain: ETRECIYYNANWELERTNQSGLERCEGEQDKRWHCYASWRNSSGTIELVKKGCWLDDFNCYDRQECVATEENPQVYFCCCEGNFCNERFTHLPEAGGPEVTYEPPPTGGGGSGGGGSGG[human IgG1 Fc and a few adjoining residues cut from this listing]
Q: With B6 as the binder, how does the “fold less potent than P75” value [7] read?
A: > 100 fold

Q: What about the “BMP-10 IC50” value [1] of the same binder?
A: > 100 nM

Q: And the “BMP-9 IC50” value [2]?
A: > 1000 nM

Q: And the “Activin A IC50” value [3]?
A: 0.7 nM

Q: What about the “Activin B IC50” value [4] of the same binder?
A: 1.8 nM

Q: And the “GDF-11 IC50” value [5]?
A: 0.39 nM

Q: What about the “GDF-8 IC50” value [6] of the same binder?
A: 0.33 nM

B7: P1373 (Fc fusion)
chain: ETRECIYYNANWELERTNQSGLERCEGEQDKRWHCYASWRNSSGTIELVKKGCWLDDFNCYDRQECVATEENPQVYFCCCEGNFCNERFTHLPEAGGPEVTYEPPPTGGGGSGGGGSGGGGSGG[human IgG1 Fc and a few adjoining residues cut from this listing]
Q: B7 was tested. Which “fold less potent than P75” value [7] did it give?
A: > 100 fold

Q: And the “BMP-10 IC50” value [1]?
A: > 100 nM

Q: What about the “BMP-9 IC50” value [2] of the same binder?
A: > 1000 nM

Q: And the “Activin A IC50” value [3]?
A: 0.53 nM

Q: What about the “Activin B IC50” value [4] of the same binder?
A: 2.9 nM

Q: What about the “GDF-11 IC50” value [5] of the same binder?
A: 0.46 nM

Q: What about the “GDF-8 IC50” value [6] of the same binder?
A: 0.4 nM

B8: P1374 (Fc fusion)
chain: ETRECIYYNANWELERTNQSGLERCEGEQDKRWHCYASWRNSSGTIELVKKGCWLDDFNCYDRQECVATEENPQVYFCCCEGNFCNERFTHLPEAGGPEVTYEPPPTGGGGSGGGGSGGGGSGGGG[human IgG1 Fc with changes cut from this listing]
Q: What does the source list for B8?
A: Activin A IC50 [3]: 0.53 nM; Activin B IC50 [4]: 1.9 nM; GDF-11 IC50 [5]: 0.4 nM; GDF-8 IC50 [6]: 0.37 nM

B9: P1389 (Fc fusion)
chain: ETRECIYYNANWELERTNQSGLERCETEQDKRWHCYASWRNSSGTIELVKKGCWLDDFNCYDRQECVATEENPQVYFCCCEGNFCNERFTHLPEAGGPEVTYEPPPTGGGGSGGGGSGGGGSGG[human IgG1 Fc and a few adjoining residues cut from this listing]
Q: With B9 as the binder, how does the “BMP-10 IC50” value [1] read?
A: > 100 nM

Q: And the “BMP-9 IC50” value [2]?
A: > 100 nM

Q: What about the “Activin A IC50” value [3] of the same binder?
A: 0.52 nM

Q: What about the “Activin B IC50” value [4] of the same binder?
A: 1 nM

Q: What about the “GDF-11 IC50” value [5] of the same binder?
A: 0.39 nM

Q: And the “GDF-8 IC50” value [6]?
A: 0.4 nM

B10: P1406 (Fc fusion)
chain: ETRECIYYNANWEEERTNQSGLERCEGEQDKRWHCYASWRNSSGTIELVKKGCWLDDFNCYDRQECVATEENPQVYFCCCEGNFCNERFTHLPEAGGPEVTYEPPPTGGGGSGGGGSGGGGSGG[human IgG1 Fc and a few adjoining residues cut from this listing]
Q: Which “BMP-10 IC50” value [1] does the source give for B10 here?
A: > 100 nM

Q: What about the “BMP-9 IC50” value [2] of the same binder?
A: > 1000 nM

Q: What about the “Activin A IC50” value [3] of the same binder?
A: 1.7 nM

Q: What about the “Activin B IC50” value [4] of the same binder?
A: > 20 nM

Q: What about the “GDF-11 IC50” value [5] of the same binder?
A: 0.37 nM

Q: What about the “GDF-8 IC50” value [6] of the same binder?
A: 0.33 nM

B11: P1409 (Fc fusion)
chain: ETRECIYYNANWEQERTNQSGLERCEGEQDKRWHCYASWRNSSGTIELVKKGCWLDDFNCYDRQECVATEENPQVYFCCCEGNFCNERFTHLPEAGGPEVTYEPPPTGGGGSGGGGSGGGGSGG[human IgG1 Fc and a few adjoining residues cut from this listing]
Q: B11 was tested. Which “BMP-10 IC50” value [1] did it give?
A: > 100 nM

Q: What about the “BMP-9 IC50” value [2] of the same binder?
A: > 1000 nM

Q: And the “Activin A IC50” value [3]?
A: 0.55 nM

Q: And the “Activin B IC50” value [4]?
A: 1.9 nM

Q: What about the “GDF-11 IC50” value [5] of the same binder?
A: 0.39 nM

Q: And the “GDF-8 IC50” value [6]?
A: 0.48 nM

B12: P1371 (Fc fusion)
chain: ETRECIYYNANWELERTNQSGLERCEGEQDKRWHCYASWRNSSGTIELVKKGCWLDDFNCYDRQECVATEENPQVYFCCCEGNFCNERFTHLPEAGGPEVTYEPPPTGGGGSGGGGSGGGG[human IgG1 Fc with changes cut from this listing]
Q: B12 was tested. Which “Activin A IC50” value [3] did it give?
A: 0.56 nM

Q: And the “Activin B IC50” value [4]?
A: 2.7 nM

Q: What about the “GDF-11 IC50” value [5] of the same binder?
A: 0.6 nM

Q: What about the “GDF-8 IC50” value [6] of the same binder?
A: 0.23 nM
